Test results as given in PubChem BioAssay AID485297 (National Center for Advancing Translational Sciences (NCATS), 2010).
The whole screen tested about 320,000 compounds, of which about 9,100 (2.8%) were called active. The shares of active, inactive and inconclusive entries below differ from those in the screen. Calls come from the whole dose curve; as a rule, active = well fitted activation curve with a large enough effect; inconclusive = small, poorly fitted or top-dose-only effect; inactive = no such curve, though single readings can be large or run the other way. Potencies of inconclusive entries are doubtful fits and often do not repeat.

Assay: qHTS Assay for Rab9 Promoter Activators; note: nearly all actives have a fitted effect of over 60% in size; for activation, negative = inhibition: % of control where 0% means no effect
Settings: Huh7 Rab9 promoter-luciferase reporter, luminescence, 24 h; series mostly up to 9.22 µM; activation, negative = inhibition: at the top concentration
Procedure, shortened: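 Cell-based reporter: Huh7 stable for Rab9 promoter-driven luciferase, plated in reduced-serum medium with 10% FBS at 1500 cells/well, compound-treated 24 h at 37 °C, luminescence read after 10 min reagent.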
Potency is the fitted concentration of half-maximal effect; tags give direction and shape of the fitted curve.

Potency, active:
Cc1occc1C(=O)Nc1ccc2c(c1)OCCO2 1.26 µM, Cc1c(/C(O)=C2/C(=O)C(=O)N(Cc3cccnc3)C2c2cccs2)cnn1-c1ccccc1 (configuration not stated) 3.55 µM, Cc1ccc(C(=O)O/N=C(\N)c2ccccn2)cc1C 0.501 µM, COc1ccc(N/C=C2\CCc3ccccc3C2=O)cc1 0.1 µM, Cc1ccc(C(=O)N2c3ccccc3CC2C)o1 (configuration not stated) 1 µM, COc1ccc(C(=O)N=c2sc3ccccc3n2C)cc1OC 2.24 µM

Potency, inconclusive:
CC1CCCN(c2ccc(C(=O)NCc3ccccc3)cn2)C1 (configuration not stated) 3.16 µM [activator, single point], CN1CCN(c2ccc(NC(=O)c3ccc(Cl)cc3Cl)cc2)CC1 4.47 µM [activator, partial curve], Cc1cccc(NC(=O)c2c(C)nn(-c3ccccc3)c2Cl)c1 5.62 µM [activator, single point], Cc1cc(OCC(=O)N2CCCC2)ccc1Cl 3.98 µM [activator, partial curve], COc1cc(C=O)ccc1OCCCOc1ccccc1C(=O)O 1.58 µM [activator, partial curve], Cn1ccnc1SCC(=O)Nc1nc2ccccc2s1 5.01 µM [activator, single point], Cc1sc(NC(=S)NC(=O)C(C)(C)C)c(C(N)=O)c1C 4.47 µM [activator, partial curve], O=C(Nc1ccccc1)Nc1ccc2ncoc2c1 3.55 µM [activator, single point], Cc1ccc2[nH]c3c(=O)n(CCc4cnc[nH]4)cnc3c2c1 5.62 µM [activator, single point], Cc1ccc(C2=NC3(CCCC3)NC2=S)cc1 3.98 µM [activator, partial curve], O=C(N/N=C/c1ccc(N2CCOCC2)cc1)c1cccs1 1.12 µM [activator, full curve], Cc1cccc(N(CC(=O)Nc2ccc(-c3nc4ccc(C)cc4s3)cc2)S(C)(=O)=O)c1 2 µM [activator, partial curve], CC(C)c1ccc(/C=C2\CC/C(=C\C=N\N(C)C)C2=O)cc1 0.794 µM [activator, partial curve]

activation, negative = inhibition, inactive:
CCC(=O)NCCNc1nc2cc(C)cc(C)c2cc1C#N -7.81%, CC(=O)Nc1ccc(NC(=O)c2cccc3ccccc23)cc1 -5.38%, COc1ccc(NC(=O)N2CCN(C(=O)C3CCCO3)CC2)cc1 (configuration not stated) -3.2%
